Data from the supplement of paper PMC10126150.
Sequences with one replicate were seen in a single cluster, so their values are uncertain.
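Also: ATP exposure 15 min at 22 °C before imaging.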

What follows are sequences tested on ATP (assay: switch fluorescence ratio, 500 uM ATP over buffer (Cy3 cluster intensity, sum of 5 cycles each) (fold (ratio)); higher = stronger signal-on switching upon ATP binding; sequences stand for … in TCGTCGGCAGCGTCAGATGTGTATAAGAGACAGTTTTTTTTTTTTTTTTTTTTTTTTT…TC). Settings: aptamer strand: ATP DNA aptamer (quencher-CACCTGGGGGAGTATTGCGGAGGAAGG + anchor), 100 nM annealed; ATP concentration: 500 uM; one replicate.
Method in brief: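 After annealing to 100 nM quencher-labelled ATP aptamer, Cy3-labelled switching-strand clusters on a modified Illumina MiSeq flow-cell were imaged in selection buffer. A second image followed after 15 min with 500 uM ATP at 22 °C, and five such buffer/ATP cycles were done, each separated by NaOH stripping and re-annealing. The fluorescence ratio, averaged per switch-domain sequence, is summed target-cycle over summed buffer-cycle Cy3 intensity per cluster, with clusters outside 100-1000 RFU excluded.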
With TTCATAAACT the switch fluorescence ratio was 1.07. In the case of TTCATAAGTA, the switch fluorescence ratio is reported as 0.957. In the case of TTCATCAATT, the switch fluorescence ratio is reported as 1.02. TTCATCCTTT gave a switch fluorescence ratio of 1.06. TTCATCG was tested, and the switch fluorescence ratio was 1.02. With TTCATCGAGT the switch fluorescence ratio was 1.03. Work on TTCATCGGAC yielded a switch fluorescence ratio of 1.02. In the case of TTCATCGGGC, the switch fluorescence ratio is reported as 1.03. TTCATCGTAC was tested, and the switch fluorescence ratio was 1.21. TTCATCGTT showed a switch fluorescence ratio of 1.01. TTCATTCGAC showed a switch fluorescence ratio of 1.04. In the case of TTCATTCGGT, the switch fluorescence ratio is reported as 1.01. With TTCCAAAGTC the switch fluorescence ratio was 1.01. In the case of TTCCACAGCT, the switch fluorescence ratio is reported as 1.8. In the case of TTCCACGCCC, the switch fluorescence ratio is reported as 1.43. For TTCCACTCCG, the switch fluorescence ratio was 1.24. For TTCCAGAAGC, the switch fluorescence ratio was 1.06. TTCCAGCAGG was tested, and the switch fluorescence ratio was 1.19. In the case of TTCCAGCGGG, the switch fluorescence ratio is reported as 0.986. Work on TTCCATCTAT yielded a switch fluorescence ratio of 1. For TTCCATCTGA, the switch fluorescence ratio was 1.06. In the case of TTCCATTTCC, the switch fluorescence ratio is reported as 1.13. For TTCCCAAAG, the switch fluorescence ratio was 1.13. TTCCCGCGCC was tested, and the switch fluorescence ratio was 2.31. With TTCCCGGGCT the switch fluorescence ratio was 1.02. Sequence TTCCCTTAGT has a switch fluorescence ratio of 1.05. TTCCGCTTAT was tested, and the switch fluorescence ratio was 3.31. TTCCGGAAAC showed a switch fluorescence ratio of 2.48. TTCCGGGTAG gave a switch fluorescence ratio of 1.03. TTCCGTCTTA was tested, and the switch fluorescence ratio was 1. TTCCGTGAAC was tested, and the switch fluorescence ratio was 2.03. With TTCCTATCGG the switch fluorescence ratio was 0.987. TTCCTCGATA showed a switch fluorescence ratio of 1.02. TTCCTGGGTA was tested, and the switch fluorescence ratio was 1.03. TTCCTGGGTG showed a switch fluorescence ratio of 2.03. TTCCTGTTCG was tested, and the switch fluorescence ratio was 1.04. Sequence TTCCTTCACA has a switch fluorescence ratio of 1.14. In the case of TTCCTTGACA, the switch fluorescence ratio is reported as 1.04. TTCCTTTGCA was tested, and the switch fluorescence ratio was 4.59. Work on TTCGACCTAC yielded a switch fluorescence ratio of 1.13. TTCGACCTGA was tested, and the switch fluorescence ratio was 1.11. TTCGACCTTA gave a switch fluorescence ratio of 1.08. In the case of TTCGAGTATC, the switch fluorescence ratio is reported as 1. TTCGATACAT was tested, and the switch fluorescence ratio was 1.04. Work on TTCGATGTCT yielded a switch fluorescence ratio of 1.01. TTCGATTCCA gave a switch fluorescence ratio of 1. TTCGCAAGTG was tested, and the switch fluorescence ratio was 1.3. TTCGCGAATT showed a switch fluorescence ratio of 0.978. TTCGCGGTCC gave a switch fluorescence ratio of 1.18. Work on TTCGCTGATG yielded a switch fluorescence ratio of 0.997. TTCGCTGTTT showed a switch fluorescence ratio of 1.04. TTCGCTTCCG showed a switch fluorescence ratio of 1.09. TTCGGAGTA was tested, and the switch fluorescence ratio was 0.984. Work on TTCGGCAAAT yielded a switch fluorescence ratio of 1.07. For TTCGGCACCC, the switch fluorescence ratio was 0.97. With TTCGGCACGC the switch fluorescence ratio was 1.33. For TTCGGCCATC, the switch fluorescence ratio was 1. TTCGGCGCTA showed a switch fluorescence ratio of 1.2. Work on TTCGGGTCGT yielded a switch fluorescence ratio of 1.03. TTCGGTCAG gave a switch fluorescence ratio of 1.01. Sequence TTCGGTGTGC has a switch fluorescence ratio of 1. With TTCGTACTAG the switch fluorescence ratio was 1.02. With TTCGTATTGC the switch fluorescence ratio was 1.03. TTCGTATTTG showed a switch fluorescence ratio of 1. With TTCGTCAGGG the switch fluorescence ratio was 1.02. With TTCGTGGAAG the switch fluorescence ratio was 1.11. TTCGTGGATA showed a switch fluorescence ratio of 1.04. In the case of TTCGTGGTAC, the switch fluorescence ratio is reported as 3.3. TTCGTGTGAG was tested, and the switch fluorescence ratio was 0.961. TTCTACACT gave a switch fluorescence ratio of 0.996. TTCTAGATT showed a switch fluorescence ratio of 0.996. For TTCTAGCGCT, the switch fluorescence ratio was 0.98. With TTCTAGCGTC the switch fluorescence ratio was 1.09. Sequence TTCTAGTACT has a switch fluorescence ratio of 1.01. TTCTAGTCGA was tested, and the switch fluorescence ratio was 0.965. TTCTATACAC showed a switch fluorescence ratio of 1.04. Sequence TTCTCCCGAT has a switch fluorescence ratio of 1.1. TTCTCCCGCC was tested, and the switch fluorescence ratio was 2.94. Work on TTCTCCGTCC yielded a switch fluorescence ratio of 3.03. Work on TTCTCCTGGG yielded a switch fluorescence ratio of 1.06. With TTCTCGGATT the switch fluorescence ratio was 1.06. Sequence TTCTCGGTTG has a switch fluorescence ratio of 1.02. Work on TTCTCTACG yielded a switch fluorescence ratio of 1.56. In the case of TTCTGAAGAG, the switch fluorescence ratio is reported as 1.01. TTCTGCCAGT gave a switch fluorescence ratio of 1.61. With TTCTGCGAAA the switch fluorescence ratio was 1.01. In the case of TTCTGGCA, the switch fluorescence ratio is reported as 1.09. TTCTGGCAAG was tested, and the switch fluorescence ratio was 1.01. Sequence TTCTGGGCCG has a switch fluorescence ratio of 1.03. TTCTGGTATT gave a switch fluorescence ratio of 0.978. TTCTGTACTG was tested, and the switch fluorescence ratio was 1.01. TTCTGTGCAT was tested, and the switch fluorescence ratio was 1.28. TTCTGTGTTG was tested, and the switch fluorescence ratio was 0.992. For TTCTTAACTG, the switch fluorescence ratio was 1.08. With TTCTTACCTC the switch fluorescence ratio was 0.997. TTCTTCCGAG gave a switch fluorescence ratio of 2.73. Sequence TTCTTCGAGG has a switch fluorescence ratio of 1.02. Sequence TTCTTCGGTA has a switch fluorescence ratio of 1. With TTCTTCGTGC the switch fluorescence ratio was 1.06. With TTCTTGAAT the switch fluorescence ratio was 0.984. In the case of TTCTTGCAAT, the switch fluorescence ratio is reported as 1.23. With TTCTTGGTAC the switch fluorescence ratio was 1.08. For TTGAAAAGGG, the switch fluorescence ratio was 1.04. Work on TTGAAAGAAG yielded a switch fluorescence ratio of 1. For TTGAAAGGTA, the switch fluorescence ratio was 0.958. For TTGAACGACT, the switch fluorescence ratio was 1.03. Work on TTGAAGCCGG yielded a switch fluorescence ratio of 0.98. TTGAATGTGG gave a switch fluorescence ratio of 0.976. TTGAATTGAG was tested, and the switch fluorescence ratio was 0.951. TTGACACATC was tested, and the switch fluorescence ratio was 1.02. Work on TTGACACCAG yielded a switch fluorescence ratio of 0.97. Sequence TTGACACCGT has a switch fluorescence ratio of 1.05. In the case of TTGACACGCG, the switch fluorescence ratio is reported as 0.966. Work on TTGACACGGT yielded a switch fluorescence ratio of 1.01. Sequence TTGACACTAG has a switch fluorescence ratio of 0.978. For TTGACAGTGT, the switch fluorescence ratio was 0.968. TTGACGAAAA showed a switch fluorescence ratio of 1.73. With TTGACGGCAT the switch fluorescence ratio was 0.998. In the case of TTGACGGCGG, the switch fluorescence ratio is reported as 1. With TTGACGTACT the switch fluorescence ratio was 1.36. Sequence TTGACGTTGT has a switch fluorescence ratio of 1.01. For TTGACTGCTC, the switch fluorescence ratio was 0.995. TTGAGAGCA gave a switch fluorescence ratio of 1.03. With TTGAGCGCGG the switch fluorescence ratio was 1.04. Sequence TTGAGCGG has a switch fluorescence ratio of 1.15. With TTGAGGCGTT the switch fluorescence ratio was 1.05. Sequence TTGAGTAGGA has a switch fluorescence ratio of 0.966. TTGAGTCT gave a switch fluorescence ratio of 0.964. TTGAGTCTCA was tested, and the switch fluorescence ratio was 1.01. With TTGAGTGAAG the switch fluorescence ratio was 1.01. Sequence TTGATAAAAT has a switch fluorescence ratio of 1.01. Sequence TTGATAAAT has a switch fluorescence ratio of 1.01. Sequence TTGATAGCGC has a switch fluorescence ratio of 1.1. Work on TTGATAGGAC yielded a switch fluorescence ratio of 1.08. TTGATCCGGA showed a switch fluorescence ratio of 0.958. TTGATCTATG showed a switch fluorescence ratio of 1. With TTGATGTTAC the switch fluorescence ratio was 1.83. Work on TTGCAAACG yielded a switch fluorescence ratio of 1.34. In the case of TTGCAAGTA, the switch fluorescence ratio is reported as 0.989. In the case of TTGCACACAC, the switch fluorescence ratio is reported as 1.54. With TTGCACTTGT the switch fluorescence ratio was 1.14. TTGCAGGAGT gave a switch fluorescence ratio of 1.15. Sequence TTGCATAACC has a switch fluorescence ratio of 1.04. Work on TTGCCAAAGA yielded a switch fluorescence ratio of 0.981. In the case of TTGCCAGCCT, the switch fluorescence ratio is reported as 1.03. With TTGCCAGTAA the switch fluorescence ratio was 0.969. TTGCCCAATC gave a switch fluorescence ratio of 1.45. For TTGCCCACGC, the switch fluorescence ratio was 1.03. In the case of TTGCCCACTG, the switch fluorescence ratio is reported as 1.08. TTGCCCGTTC showed a switch fluorescence ratio of 0.945. TTGCCGAATC gave a switch fluorescence ratio of 1. Sequence TTGCCGGCAC has a switch fluorescence ratio of 1.01. Work on TTGCCGGCGC yielded a switch fluorescence ratio of 1.02. TTGCGATCG showed a switch fluorescence ratio of 1.01. In the case of TTGCGCTTGG, the switch fluorescence ratio is reported as 1.03. With TTGCGGAATA the switch fluorescence ratio was 1.04. Work on TTGCGTCAAC yielded a switch fluorescence ratio of 1. TTGCTAAGAC showed a switch fluorescence ratio of 1.54. TTGCTACGT gave a switch fluorescence ratio of 1.04. TTGCTACGTT was tested, and the switch fluorescence ratio was 0.996. Work on TTGCTAGGCA yielded a switch fluorescence ratio of 1. Sequence TTGCTAGTT has a switch fluorescence ratio of 0.999. For TTGCTCAATT, the switch fluorescence ratio was 1.03. In the case of TTGCTCCCAT, the switch fluorescence ratio is reported as 1.16. In the case of TTGCTCTAAG, the switch fluorescence ratio is reported as 1.02. TTGCTCTGGT was tested, and the switch fluorescence ratio was 1.03. Work on TTGCTGTACA yielded a switch fluorescence ratio of 0.998. TTGCTTCTTC was tested, and the switch fluorescence ratio was 1.07. In the case of TTGCTTGAAT, the switch fluorescence ratio is reported as 1.04. TTGCTTGACG showed a switch fluorescence ratio of 0.99. TTGCTTTTCA was tested, and the switch fluorescence ratio was 1.01. Sequence TTGCTTTTGA has a switch fluorescence ratio of 1. Work on TTGGAACGCC yielded a switch fluorescence ratio of 1.03. For TTGGAAGTCG, the switch fluorescence ratio was 0.993. With TTGGAATCG the switch fluorescence ratio was 0.98. Sequence TTGGACACAC has a switch fluorescence ratio of 1.03. Work on TTGGACGCGC yielded a switch fluorescence ratio of 1.04. In the case of TTGGAGCTGA, the switch fluorescence ratio is reported as 1.56. With TTGGAGTGTA the switch fluorescence ratio was 1.04. TTGGCAATCC gave a switch fluorescence ratio of 1.71. Sequence TTGGCCGTT has a switch fluorescence ratio of 0.983. TTGGCGCCGC showed a switch fluorescence ratio of 0.963. TTGGCGCGT gave a switch fluorescence ratio of 1.03. TTGGCGTACG was tested, and the switch fluorescence ratio was 1.03. Sequence TTGGCGTAGA has a switch fluorescence ratio of 1.02. For TTGGCGTCT, the switch fluorescence ratio was 1.21. Work on TTGGCTCACC yielded a switch fluorescence ratio of 0.991. TTGGCTCATT was tested, and the switch fluorescence ratio was 1.02. TTGGGAAACC gave a switch fluorescence ratio of 1.07. In the case of TTGGGACTAG, the switch fluorescence ratio is reported as 0.993. With TTGGGCCTTT the switch fluorescence ratio was 0.979. Work on TTGGGCTAGT yielded a switch fluorescence ratio of 0.952. In the case of TTGGGGGAA, the switch fluorescence ratio is reported as 1.06. Sequence TTGGGTCTAG has a switch fluorescence ratio of 1.01. Work on TTGGGTCTTG yielded a switch fluorescence ratio of 0.977. With TTGGGTGACA the switch fluorescence ratio was 1.02. For TTGGTACCA, the switch fluorescence ratio was 0.984. Work on TTGGTACCTT yielded a switch fluorescence ratio of 2.18. TTGGTAGAG was tested, and the switch fluorescence ratio was 0.994. Sequence TTGGTATGGT has a switch fluorescence ratio of 0.967. For TTGGTCCTAT, the switch fluorescence ratio was 0.947.
